# Test results reported in the supplement of paper PMC11417369.
# ± gives the standard deviation of the averaged measurements. The list shows a part of the results.
# Tested on: PfAP2-LT AP2 domain (GST-tagged)
# Assay: gcPBM binding intensity (ln(normalized median fluorescence intensity)); higher = stronger DNA binding
# Procedure, shortened: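 DNA-binding domains from P. falciparum, fused to GST and produced in E. coli, were put on an Agilent 4 × 180k double-stranded probe array for 1 h in 1× PBS holding 1% milk, 0.2 mg/ml BSA, 0.5% salmon testes DNA and 0.03% Triton X-100. Probes were primer-extended, 36 bp long and drawn from intergenic genomic regions, with negative controls included. After Alexa488 anti-GST antibody detection and a 488 nm scan, binding intensity was set as the highest Masliner-normalised natural-log median intensity across replicate spots of either probe orientation.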
row,Sequence,gcPBM binding intensity (ln)
1,TATAATAATAAAAACACACACGTTGATTGTATTAGC [CACACA_site5336],9.13 ± 0.33
2,TCTTTTTTTTATTATATCATTGAAATGTTAAAACGA [XGTACX_negctrl_site473],8.27 ± 0.41
3,CCTATTATTTCTAAAACACACAAAAATATAAAAGAA [CACACA_site2708],8.67 ± 0.49
4,ATAATATTATTTAAAAGTACTAACAAAAGAATATTA [XGTACX_site4989],8.45 ± 0.52
5,GCAATTTTTTTTAAGAGTACTAATATATTATAGTGG [XGTACX_site7316],8.45 ± 0.34
6,TTTTTTTAATAGTGTGCACACAATATACAGAAAAAA [CACACA_site8399],9.17 ± 0.44
7,AAAAAGTGACTCCTTACACACTTTACATAATTTAGG [CACACA_site8176],8.82 ± 0.4
8,ATATACATATATATATGTACTTATTTATTTATTTAT [XGTACX_site2532],8.95 ± 0.45
9,ATATATATATATATATGTACATATGTTTGTTTCCGC [XGTACX_site5167],9.97 ± 0.24
10,TTTTTTTTCATTTTATGTACACATAATTTAATATAT [XGTACX_site5768],8.74 ± 0.67
11,CATACATACATACATACATGCATACATACATACATA [TGCATGCA_site218],9.19 ± 0.28
12,CATAATTTAAAAAAGGTGCAAAATGGATAATATATA [GTGCAC_site9657],8.96 ± 0.47
13,TAATTTCTTTAGGGGGTGCTTTTATAGTTTTTATTA,9.615 ± 0.05
14,CTGTCTGCAGATATGGTGCATTTGTAAGATCTTACA [GTGCAC_site9870],8.88 ± 0.45
15,TTCATAAAATGTGTCTGTACGTAAATGTATTACACT [XGTACX_site3179],8.96 ± 0.4
16,TTTATATTTATGATGGGTACACAAAATTTTACCCAT [XGTACX_site1504],8.67 ± 0.47
17,AATGTATAAATCCATACACACATAAATTTTAATAAT [CACACA_site2363],9.09 ± 0.42
18,AAAAAAATTAAAAATTAAAATTAAAAATAATATATA [GTGCAC_negctrl_site466],8.22 ± 0.68
19,TATATATATGAACAATGTACGTATAATATTTTTATT [XGTACX_site7561],8.72 ± 0.44
20,GATCTATACTATAATACACACATTTGATGAATGTAA [CACACA_site6163],8.86 ± 0.29
21,AACATTATATATTGCAGTACTCCCATATGTTGATAA [XGTACX_site3119],8.82 ± 0.39
22,ATATATATATATATATGTACACATAAAAAGAAAGAA [XGTACX_site1603],9.27 ± 0.42

row,Sequence,gcPBM binding intensity (ln)
1,TTTAGTTGTGAGAATTGTACATATTTTCCTTTTACC [XGTACX_site7291],8.69 ± 0.52
2,TATATACCTATATACACACACATATATTATAGATAT [CACACA_site6266],9.32 ± 0.34
3,ATTAATAAAAAATTTTAAAAAATAAATAAAATAAAA [TGCATGCA_negctrl_site113],8.25 ± 0.69
4,ATAATAAATAAAATAACACACATATATAAATATATA [CACACA_site170],8.91 ± 0.42
5,ATTTTTATTCAGTTCACACACGCTTTAATATTATAT [CACACA_site3465],9.29 ± 0.38
6,ATATATATTTAACAATGTACTTATTCAGAGAATAAT [XGTACX_site574],8.52 ± 0.45
7,AAAATATTTTTATAATGTACATATAGTTGTATTTGT [XGTACX_site8724],8.81 ± 0.39
8,AAGTTGAAATAATGTGCACACATTTTTTTTTTTTTT [CACACA_site3368],9.02 ± 0.26
9,CCCTTAATATAAAGCACACATATATATAATATATAT [CACACA_site4439],8.94 ± 0.33
10,AAAAAAAAAAAAAAAAAAAACGAAAAACATCAAAGA [TGCATGCA_negctrl_site78],8.63 ± 0.52
11,TATCCTTATATTTGCACACACACACTAGAAAATGAA [CACACA_site4714],9.68 ± 0.25
12,ATTTATACTTATGTATGTACATATATACATATGTAT [XGTACX_site3979],9.14 ± 0.3
13,ACTAAAAAATATATATGTACATAATAATATATTATT [XGTACX_site1260],8.69 ± 0.38
14,ATAATAAAATAACTAGTGCATATTCAAAGGATTCAG,8.98 ± 0.42
15,ATTATGTGTCCACATGTAAGCTATCTTACTTATATA [CACACA_negctrl_site1227],8.9 ± 0.45
16,CATATTTGTGGACACACACACATATTTATATATATA [CACACA_site5887],9.39 ± 0.34
17,TACAAAAAAATAAAAAAAATTAAATAAATAAATATA [CACACA_negctrl_site45],8.38 ± 0.56
18,ATAGTTACACAATGGTGTACAAGTCAATATATTTCT [XGTACX_site4614],8.81 ± 0.42
19,TAAAAAAAAAAAAAAAGTACACACATACATATAAAT [XGTACX_site3752],9.12 ± 0.39
20,ATTTTTTTTTTTTTATGTACATATAGGTGCAAATCA [XGTACX_site6748],8.55 ± 0.32
21,ACAATGTCATTTGCTAGTACGCATATTGGTTGTAAA [XGTACX_site8924],8.91 ± 0.31
22,TATTTTTTTTTTTTTTTTTTTTTAAAACATATCAAT [CACACA_negctrl_site925],8.35 ± 0.49
